# Several values for one entry are separate records, joined by “and”; a condition that tells them apart may be missing. Equal entries are not always repeated. ± gives the uncertainty stated by the source. The full ranking holds about 9,900 compounds; the median of “viability index relative to DMSO control” is about 1, and the lowest 2% start at about 0.85. The list shows a part of the results.
# System: Plasmodium falciparum NF54 stage V gametocytes
# Assay: viability index relative to DMSO control (fraction); higher = less gametocyte killing
# Settings: 2.5 µM, incubation time: 72 h
# How it was run: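 In 1,536-well plates, 10 µl of serum-free medium holding P. falciparum NF54 stage V gametocytes (0.75% gametocytemia, 1.25% hematocrit) received compound at 2.5 µM for 72 hr at 37°C in low oxygen. After one to two hours with 3 µl of 2.5 µM MitoTracker Red CMXRos containing 0.13% saponin, red particles of 20–70 µm2 were counted in a single field per well. Viability index is reported as the particle count over the plate mean of wells treated with solvent only.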
# [1] = library set: Broad Institute DOS
Structure (SMILES),viability index [1],viability index (library set: Broad Institute Blood Stage)
COc1ccc(CN(C)C[C@H]2OCCCC[C@@H](C)Oc3ccc(NC(=O)C4CCCCC4)cc3C(=O)N([C@H](C)CO)C[C@@H]2C)cc1,1.07 ± 0.029,–
C[C@@H](NC(=O)C[C@H]1CC[C@H]2[C@H](COc3ccc(NC(=O)C4CCOCC4)cc3C(=O)N2C)O1)c1ccccc1,1.061 ± 0.0016,–
COc1ccc2c3c([nH]c2c1)[C@H](CO)N(C[C@]31CN(C1)C(=O)CN1CCOCC1)C(C)=O,0.987 ± 0.065,–
CN1C(=O)c2cc(NC(=O)c3cccc(F)c3)ccc2OC[C@@H]2O[C@@H](CC(=O)NCC3CCCCC3)CC[C@@H]21,1.03 ± 0.1,–
CCNC(=O)[C@H]1[C@H](CO)[C@H]2Cn3c(ccc(-c4cccc(F)c4)c3=O)[C@H]2N1C(=O)Cc1cccnc1,1.04 ± 0.065,–
O=C(Nc1ccc(C(F)(F)F)cc1)Nc1ccc2c(c1)[C@H]1C[C@H](CC(=O)N3CCc4ccccc4C3)O[C@@H](CO)[C@H]1O2,1.081 ± 0.0074,–
Cc1noc(C)c1S(=O)(=O)N(C)C[C@@H]1OCCCC[C@H](C)Oc2ccc(N(C)C)cc2C(=O)N([C@H](C)CO)C[C@H]1C,0.998 ± 0.043,–
CC(C)N(C[C@H]1[C@@H](c2ccccc2)[C@H](CO)N1S(C)(=O)=O)C(=O)CN(C)C,1.01 ± 0.073,–
COc1cccc(C(=O)Nc2ccc3c(c2)C(=O)N(C)[C@@H]2CC[C@@H](CC(=O)NCc4ccc(F)cc4)O[C@@H]2CO3)c1,1.17 ± 0.09,–
O=C(C[C@H]1CC[C@H]2[C@@H](COC[C@H](O)CN2Cc2cc(F)ccc2F)O1)NCc1ccc(Oc2ccccc2)cc1,1.06 ± 0.045,–
COc1ccc2c3c([nH]c2c1)[C@H](CO)N(Cc1nccs1)C[C@]31CN(Cc2ccncc2)C1,0.986 ± 0.099,–
CN1C(=O)c2cc(NC(=O)c3cccc(F)c3)ccc2OC[C@@H]2O[C@H](CC(=O)NCC3CCCCC3)CC[C@@H]21,1.09 and 1.11,–
C[C@H](CO)N1C[C@H](C)[C@@H](CN(C)Cc2ccccc2)Oc2ccc(NC(=O)Nc3ccccc3)cc2C1=O,1.045 ± 0.0045,–
C[C@H]1CN([C@@H](C)CO)S(=O)(=O)c2ccc(-c3cncnc3)cc2O[C@@H]1CN(C)C(=O)NC1CCCC1,0.931 ± 0.06,–
Cc1noc(C)c1S(=O)(=O)Nc1ccc2c(c1)C(=O)N([C@H](C)CO)C[C@@H](C)[C@@H](CN(C)Cc1ccc(C(=O)O)cc1)OCCCC[C@@H](C)O2,1.14 ± 0.055,–
CN1CCN(C(=O)[C@H]2[C@H](CO)[C@H]3Cn4c(cccc4=O)[C@H]3N2Cc2cc(F)ccc2F)CC1,1.1 ± 0.021,–
C[C@H]1CN([C@@H](C)CO)C(=O)CCCn2cc(nn2)CO[C@H]1CN(C)S(=O)(=O)c1ccc(-n2cccn2)cc1,1.066 ± 0.0082,–
C[C@H](CO)N1C[C@H](C)[C@H](CN(C)S(=O)(=O)c2cn(C)cn2)OCCCC[C@H](C)Oc2ccc(NC(=O)Nc3cccc4ccccc34)cc2C1=O,1.08 ± 0.11,–
O=C(Nc1ccccc1F)N1CC(=O)N2[C@@H](CO)[C@H](c3ccc(-c4cccnc4)cc3)[C@@H]2C1,1.08 ± 0.028,–
Cc1ccccc1-c1ccc([C@@H]2[C@H]3CNC[C@@H]2N3Cc2ccccn2)cc1,1.09 ± 0.026,–
O=C(Nc1nccs1)[C@@H]1[C@@H](CO)[C@@H]2Cn3c(cccc3=O)[C@H]1N2C(=O)C1CC1,1.1 ± 0.092,–
CN(C)C(=O)C[C@H]1C[C@H]2c3cc(NC(=O)Nc4ccc(F)cc4)ccc3O[C@H]2[C@@H](CO)O1,1.1 ± 0.12,–
C[C@@H]1CN([C@H](C)CO)C(=O)c2cc(NC(=O)C3CCCCC3)ccc2O[C@@H](C)CCCCO[C@H]1CN(C)C(=O)CCC(F)(F)F,1.05 ± 0.096,–

Structure (SMILES),viability index [1],viability index (library set: Broad Institute Blood Stage)
CO[C@@H](CN(C)Cc1ccc(-c2ccccn2)cc1)[C@@H](C)CN(C(=O)Nc1ccc(F)cc1)[C@@H](C)CO,1.044 ± 0.0044,–
COc1ccc(NC(=O)N(C)C[C@H]2OCc3cnnn3CCCC(=O)N([C@@H](C)CO)C[C@@H]2C)c(OC)c1,0.981 ± 0.025,–
COc1cccc(C#Cc2ccc([C@H]3[C@@H](CO)N4C(=O)CN(C(=O)c5ccccc5)C[C@H]34)cc2)c1,–,0.754 ± 0.074
CN(C[C@@H]1[C@@H](c2ccccc2)[C@H](CO)N1CC1CC1)C(=O)c1ccc(F)cc1,1.07 ± 0.066,–
COc1ccc(S(=O)(=O)Nc2ccc3c(c2)[C@@H]2C[C@@H](CC(=O)N(C)C)O[C@H](CO)[C@@H]2O3)cc1,1.09 ± 0.088,–
Cc1ccccc1S(=O)(=O)N1CCCCN2[C@H](CO)[C@H](c3ccc(C#CCN(C)C)cc3)[C@H]2C1,0.991 ± 0.03,–
C[C@@H]1CCCCO[C@H](CN(C)S(=O)(=O)c2ccccc2)[C@@H](C)CN([C@@H](C)CO)C(=O)c2cc(NC(=O)Nc3ccc4c(c3)OCO4)ccc2O1,0.9587 ± 0.0082,–
CCc1sc(N2[C@@H](C#N)[C@@H](c3ccccc3-c3cccc(F)c3)[C@@H]2CO)nc1C,1.05 ± 0.12,–
O=C(CN1CCOCC1)N1CC[C@H]2[C@H](CO)Nc3ccc(Br)cc3[C@H]21,1.01 ± 0.04,–
O=C(CC1CC1)N1CC(=O)N2[C@H](CO)[C@@H](c3ccc(C#Cc4cccc(F)c4)cc3)[C@@H]2C1,1 ± 0.038,–
Cc1cccc(S(=O)(=O)N2C[C@@H]3[C@H](c4ccccc42)[C@H](CO)N3Cc2ccc3c(c2)OCO3)c1,1.05 ± 0.039,–
C[C@H](CO)N1C[C@H](C)[C@H](CN(C)C(=O)NC2CCCC2)OCc2cnnn2CCCC1=O,1.01 ± 0.049,–
CO[C@H]1CN(C)C(=O)c2ccc(NS(=O)(=O)CC(F)(F)F)cc2OC[C@H](C)N(C(=O)NC(C)C)C[C@H]1C,1.04 ± 0.035,–
CNC[C@H]1OCc2cn(nn2)CCCC(=O)N([C@H](C)CO)C[C@@H]1C,1.08 ± 0.03,–
CO[C@H]1CN(C)C(=O)c2cc(NC(=O)CC(F)(F)F)ccc2OC[C@H](C)N(CC2CC2)C[C@H]1C,0.967 ± 0.015,–
CN1c2ccc(C3=CCCCC3)cc2[C@@H]2[C@@H](CCN2C(=O)c2ccccc2F)[C@@H]1CO,0.9269 ± 0.0031,–
CCCNC(=O)N1C[C@]2(CN(Cc3cccc(F)c3)C2)c2c([nH]c3cc(OC)ccc23)[C@H]1CO,0.96 ± 0.11,–
C[C@@H]1CCCCO[C@@H](CN(C)S(=O)(=O)c2ccc(Cl)cc2)[C@H](C)CN([C@@H](C)CO)C(=O)c2cc(NC(=O)Nc3ccc(C(F)(F)F)cc3)ccc2O1,1.09 ± 0.079,–
COc1cccc(-c2ccccc2[C@H]2[C@@H](C#N)N(C(=O)Cc3ccccc3)[C@@H]2CO)c1,1.124 ± 0.0072,–
C[C@H]1CC(=O)N[C@H](c2ccccc2)C/C=C\C[C@H](c2ccc3c(c2)OCO3)NC1=O,1.05 ± 0.032,–
CN(C)CC(=O)N[C@H]1C=C[C@@H](CC(=O)NCc2ccc(Cl)cc2)O[C@@H]1CO,1.15 ± 0.21,–
O=S(=O)(c1ccccc1)N1CCCCN2[C@H](CO)[C@@H](c3ccc(C#CC4CCCC4)cc3)[C@@H]2C1,1.01 ± 0.026,–
C[C@@H]1CN([C@@H](C)CO)C(=O)CCCn2nncc2CO[C@@H]1CN(C)Cc1ccccc1C(=O)O,1.03 ± 0.081,–

Structure (SMILES),viability index [1],viability index (library set: Broad Institute Blood Stage)
CO[C@@H]1CN(C)C(=O)c2ccc(NS(=O)(=O)CC(F)(F)F)cc2OC[C@@H](C)N(C(=O)NC(C)C)C[C@H]1C,1.04 ± 0.044,–
CCC(=O)N1C[C@H](C)[C@H](OC)CN(C)C(=O)c2ccc(NC(=O)CC(F)(F)F)cc2OC[C@H]1C,1.05 ± 0.12,–
O=C(Cc1ccccn1)N1[C@@H](CO)[C@@H]2c3ccccc3NC[C@@H]21,0.972 ± 0.082,–
CCCC(=O)N1CC[C@@]2(CC1)CN(Cc1ccc(Cl)cc1)[C@@H](CO)c1[nH]c3cc(OC)ccc3c21,0.795 ± 0.039,–
C[C@@H]1CCCCO[C@@H](CN(C)C(=O)c2ccncc2)[C@H](C)CN([C@H](C)CO)C(=O)c2cc(NS(=O)(=O)c3cccs3)ccc2O1,1.08 ± 0.098,–
CO[C@H]1CN(C)C(=O)c2ccc(NC(C)=O)cc2OC[C@H](C)N(C(=O)c2cnccn2)C[C@@H]1C,1.13 ± 0.071,–
C[C@@H]1CN([C@@H](C)CO)C(=O)c2cc(C3=CCCCC3)cnc2O[C@@H]1CN(C)S(=O)(=O)c1cn(C)cn1,0.995 ± 0.023,–
N#C[C@@H]1[C@@H](c2ccc(C#Cc3ccccc3F)cc2)[C@H](CO)N1C(=O)c1cccnc1,0.9522 ± 0.0064,–
CN1C(=O)c2cc(NC(=O)NCc3ccccc3)ccc2OC[C@@H]2O[C@@H](CC(=O)NCC3CCCCC3)CC[C@@H]21,1.05 ± 0.03,–
O=C(C[C@@H]1CC[C@@H]2[C@H](COC[C@H](O)CN2S(=O)(=O)c2ccccc2)O1)Nc1ccccc1,1.07 ± 0.042,–
CCS(=O)(=O)Nc1ccc2c(c1)C(=O)N(C)[C@H]1CC[C@H](CC(=O)NCc3ccccc3F)O[C@H]1CO2,1.12 ± 0.12,–
C/C=C/c1ccc([C@@H]2[C@@H](CO)N[C@@H]2CN(CC(C)C)C(=O)c2ccccn2)cc1,0.996 ± 0.035,–
C[C@H]1CN([C@@H](C)CO)S(=O)(=O)c2ccc(-c3ccncc3)cc2O[C@@H]1CN(C)S(C)(=O)=O,1.042 ± 0.0078,–
CC(C)NC(=O)Nc1ccc2c(c1)C(=O)N(C)[C@H]1CC[C@@H](CC(=O)NCc3ccc(F)cc3)O[C@H]1CO2,0.814 ± 0.17,–
CO[C@@H]1CN(C)C(=O)c2cc(NS(=O)(=O)c3cn(C)cn3)ccc2OC[C@H](C)NC[C@H]1C,1.05 ± 0.025,–
O=C(C[C@@H]1CC[C@@H]2[C@H](COC[C@H](O)CN2C(=O)Nc2cc(Cl)cc(Cl)c2)O1)N1CCOCC1,1.019 ± 0.003,–
C[C@H]1CN([C@@H](C)CO)C(=O)CCCn2nncc2CO[C@H]1CN(C)C(=O)Nc1cccc(Oc2ccccn2)c1,1.03 ± 0.025,–
O=C(C[C@H]1CC[C@H]2[C@@H](COC[C@H](O)CN2C(=O)c2cnccn2)O1)N1CCN(c2ccccc2)CC1,1.01 ± 0.057,–
COc1ccc(C(=O)N2C[C@@H]3[C@H](c4ccccc42)[C@H](CO)N3C(=O)Cc2ccccn2)cc1,1.096 ± 0.0012,–
O=C(C[C@@H]1CC[C@@H]2[C@H](COC[C@@H](O)CN2C(=O)c2ccncc2)O1)NCc1cc(F)cc(F)c1,1.05 ± 0.12,–
CO[C@H](CN(C)C(=O)C1CCOCC1)[C@H](C)CN([C@H](C)CO)S(=O)(=O)c1ccccc1,1.09 ± 0.072,–
N#Cc1cccc(-c2ccc([C@@H]3[C@@H]4CN(Cc5ccccc5)C[C@H]3N4)cc2)c1,1.04 ± 0.08,–

# — the supplement of paper PMC4723716
